Measured values from PubChem BioAssay AID1508624 (National Center for Advancing Translational Sciences (NCATS), 2021).
About 120 (0.25%) of roughly 48,000 compounds were called active. Inconclusive results (about 4%) are left out. Calls come from the whole dose curve; as a rule, active = well fitted activation curve with a large enough effect; inconclusive = small, poorly fitted or top-dose-only effect, or another doubt; inactive = no such curve, though single readings can be large or run the other way. Some of the results follow.

assay: Primary qHTS for Identification of Small Molecule Activators of Huntingtin-Antisense Promoter Activity; conditions: HEK293 HTT-AS promoter firefly luciferase reporter, 24 h; series mostly up to 57.5 µM; activity change, positive = activation: at the top concentration; note: nearly all actives have a fitted effect of over 55% in size
Description: Assay Provider: Russell L. Margolis M.D.
Department Neurology, Johns Hopkins University School of Medicine, Baltimore, MD
Huntington's Disease (HD) is a neurodegenerative disorder caused by a CAG repeat expansion in exon 1 of huntingtin (HTT). While there are currently no disease-modifying treatments for HD, recent efforts have focused on development of nucleotide-based therapeutics to lower HTT expression. As an alternative to siRNA or oligonucleotide methods, we hypothesized that suppression of HTT expression might be accomplished by small molecules that either (1) directly decrease HTT expression by suppressing HTT promoter activity or (2) indirectly decrease HTT expression by increasing the promoter activity of HTT-AS, the gene antisense to HTT that appears to inhibit expression of HTT.
We developed and employed a high throughput screen for modifiers of HTT and HTT-AS promoter activity using luminescent reporter HEK293 cells; of the 52,041 compounds tested, we identified 898 replicable hits. We used a rigorous stepwise approach to assess compound toxicity and the capacity of the compounds to specifically lower huntingtin protein in 5 different cell lines, including HEK293 cells, HD lymphoblastoid cells, mouse primary neurons, HD iPSCs differentiated into cortical-like neurons, and HD hESCs. We found no compounds which were able to lower huntingtin without lowering cell viability in all assays, though the potential efficacy of a few compounds at non-toxic doses could not be excluded.
SEQUENCE No. (1, 2, 3, etc.); […] (e.g., Cells, Incubation, Reagent, etc.); VALUE and DESCRIPTION.
1; Reagent; 4 uL; 2,500 Hek293 luciferase reporter cells per wells
3; Compound; 23 nL; Control inhibitor / compound library
5; Reagent; 2.5 uL; Firefly Luc reagent; Dual-Glo Luciferase Reporter Assay System (Promega)
6; Time; 10 min; room temperature incubation
7; Detection; Luminescence; FLuc
NOTES (numbers refer to sequence above)
1; High-throughput screening, measuring luminescence from a Hek293 luciferase reporter, was performed in 1,536 well white-walled tissue-culture treated plates. 2,500 cells were plated in 4 µL of Opti-MEM per well using a Multidrop Combi Reagent Dispenser (ThermoFisher).
2; Assay plates were cultured for 24 hours.
3; Control inhibitor (PTC124; final concentration of 50 uM) and compound library (at final concentrations of 460 nM - 57.5 uM) were added to the assay plate using the Kalypsis Pintool Robotic System equipped with 1536 pinheads.
4; Cells were then incubated for 24 hours at 37 degrees C prior to luminescence measurements.
5; In all cases, luminescence was measured using the Dual-Glo Luciferase Reporter Assay System (Promega) following the manufacturer's instructions.
6; Room temperature incubation.
7; Luminescence signal was obtained using the PerkinElmer ViewLux plate reader. Results were normalized to vehicle control (0% activity) and zero RLU (-100% activity).
Potency is the fitted concentration of half-maximal effect.

Potency, active:
COc1ccc(C(=O)Nc2ccc(-c3nc4ccccc4s3)cc2C)cc1Cl 1000 nM

Activity change, positive = activation, inactive:
COC(=O)c1cc(-c2ccc(OC)c(OC)c2)c2c(=O)[nH]c(=O)n(C)c2n1 -1.73%
C[N+]1(CC2COC(c3ccccc3)(C3CCCCC3)O2)CCCCC1 (configuration not stated) 1.15%
CCC(=O)N1CCc2cc(S(=O)(=O)NC(CC(C)C)C(=O)NCc3ccc(F)cc3)ccc21 (configuration not stated) -2.31%
Cc1ccc(NC(=O)Cn2c(=O)n(Cc3nc(C)no3)c(=O)c3cc4c(cc32)OCO4)c(Cl)c1 -12%
Cc1cccc(C)c1NC(=O)Cn1c(=O)n(Cc2ccco2)c(=O)c2ccc(C(=O)NC3CCCC3)cc21 -21.9%
Cc1ccc(S(=O)(=O)c2nc(-c3ccco3)oc2SCC(=O)Nc2ccc(F)cc2)cc1 2.93%
O=C(CCn1c(=O)c2sccc2n(Cc2cccc(F)c2)c1=O)NCc1ccc2c(c1)OCO2 -6.31%
CCOc1ccc(CNC(=O)C2CCCN(S(=O)(=O)N(C)c3ccc(F)cc3)C2)cc1OC (configuration not stated) -24.7%
COc1cccc(Cn2c(NCc3ccc(C)cc3)nc3c2c(=O)n(C)c(=O)n3C)c1 14.3% [at 11.5 µM, percent change from vehicle, -100% = no light]
CC(=O)c1ccc(NC(=O)c2ccc(-c3nc(COc4ccc(C)cc4)c(C)o3)cc2)cc1 -9.72%
CC[C@]12CCCN3CCc4c(n(c5ccccc45)[C@@](O)(C(=O)OC)C1)[C@@H]32 -4.9%
Cc1nn(-c2ccc3nnc(C)n3n2)c(C)c1CCC(=O)Nc1ccc(OC(F)(F)F)cc1 -16.3%
CCOC(=O)c1cnc2c(ccc3ccccc32)c1Nc1ccc(Cl)cc1 -5.2%
CCNc1nc(NC(C)(C)C)nc(Oc2ccc(=O)n(C)n2)n1 -8.98%
O=C(NCCc1ccccc1)C(=O)NCC(c1ccc2c(c1)OCO2)N1CCOCC1 (configuration not stated) -6.78%
CC1CCN(S(=O)(=O)c2nnc(NC(=O)c3cccc(Br)c3)s2)CC1 -54.5%
CCS(=O)(=O)N1CCc2cc(C(=O)NCCc3ccc(OC)cc3)ccc21 -25.6%
COc1cc(NC(=O)CC(C)n2nc(C)cc2C)cc(OC)c1 (configuration not stated) -4.8%
Cc1ccc(NC(=O)Cn2c(=O)n(CCC(=O)NCc3ccccc3Cl)c(=O)c3ccccc32)cc1 -54.6%
CCOc1ccccc1C(=O)N(Cc1ccccc1F)C1CCS(=O)(=O)C1 (configuration not stated) -17%
COc1cc(NC(=O)C(CCSC)NS(=O)(=O)c2ccc3c(c2)oc(=O)n3C)cc(OC)c1 (configuration not stated) -13.8%
COc1ccc(Cl)cc1NC(=O)CSc1cn(CC(=O)N2CCCCCC2)c2ccccc12 -47%
COc1ccc(NC(=O)CCc2c(C)nc3nc(CNC(=O)OC(C)(C)C)nn3c2C)cc1OC -5.08%
COc1ccc(CC2C(=O)Nc3ccc(Br)cc32)cc1OC (configuration not stated) -17.6%
O=C(Nc1ccc(F)c(Cl)c1)C1CCCN(c2cnccn2)C1 (configuration not stated) 8.83%
COc1ccc(S(=O)(=O)NCC(c2ccco2)N2CCN(c3ccc(F)cc3)CC2)cc1C (configuration not stated) -29.5%
CCc1ccccc1NC(=O)N1CCN(C(=O)c2nsc3ccccc23)CC1 -29.1%
CC(=O)N1CCCC1c1nc2ccccc2n1Cc1ccccc1C (configuration not stated) -17.2%
CC1CCN(S(=O)(=O)c2ccc3c(ccn3CCC(=O)NCc3ccc(N(C)C)cc3)c2)CC1 -16.4%
COc1ccc(CNC(=O)Cn2c(=O)cc(-c3ccccc3)c3c(C)nn(C)c32)cc1 -17%
COc1ccc(S(=O)(=O)N(CC(=O)Nc2cccnc2)c2ccc(Cl)cc2)cc1 -29.1%
CCOc1ccccc1CNC(=O)c1cccn1-c1nnc(N2CCCC2)s1 -16.3%
Cc1cccc(N2CCN(C(=O)Cn3nc(Cc4cccnc4)c4ccccc4c3=O)CC2)c1C -31.5%
COc1ccc(NC(=O)Cn2c(=O)ccc3cc(S(=O)(=O)N4CCCC4)ccc32)cc1Cl -38.8%
CC(CCc1ccc(O)cc1)NCCc1ccc(O)c(O)c1 (configuration not stated)
CCc1ccc2oc(C(=O)Nc3ccccc3C(=O)OC)cc(=O)c2c1 9.01% [at 11.5 µM, percent change from vehicle, -100% = no light]
O=C(Nc1ccc(Cl)c(C(F)(F)F)c1)C1CCN(S(=O)(=O)c2cccc3nonc23)CC1 -57.8%
CCCNS(=O)(=O)Nc1ncnc(OCCOc2ncc(Br)cn2)c1-c1ccc(Br)cc1 -6.78%
Cc1ccccc1CSc1cn(CC(=O)N2CCCCCC2)c2ccccc12 -3.47%
Cc1cccn2c(=O)c(C(=O)NCCc3ccc(S(N)(=O)=O)cc3)c(O)nc12 12.9%
CCCCn1c(NCc2ccc(N(C)C)cc2)nc2ccccc21 -29.6%
O=C(CCOc1ccccc1)N(Cc1cccnc1)c1nc2c(F)cccc2s1 -7.06%
COc1ccc(CNC(=O)COCc2cc(-c3cccs3)on2)cc1 3.42%
O=C(O)Cn1ccc2cc(S(=O)(=O)N3CCCCCC3)ccc21 -5.38%
Cc1ccc(-n2c(=O)c3c(c4cc(C)ccc4n3C)n(CC(=O)NCc3ccccc3)c2=O)cc1 -17%
CCN1CCc2nc3sc(C(=O)c4ccc(F)cc4)c(N)c3cc2C1 -17.9%
